Measured values as given in article PMC4336329 (PLoS ONE, 2015).
About 14,000 (4.5%) of roughly 310,000 compounds showed an effect of 50% or more. Effects have a minus sign here. The list shows a part of the results.

The molecules below were run against human ether-à-go-go-related gene (hERG) potassium channel (human, UniProt Q12809) (assay: primary screen, population patch clamp on CHO cells stably expressing hERG).
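Further: peak tail current of the secondary pulse compared with the same well before compound.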

Sequence of human ether-à-go-go-related gene (hERG) potassium channel (Q12809 whole entry, looked up): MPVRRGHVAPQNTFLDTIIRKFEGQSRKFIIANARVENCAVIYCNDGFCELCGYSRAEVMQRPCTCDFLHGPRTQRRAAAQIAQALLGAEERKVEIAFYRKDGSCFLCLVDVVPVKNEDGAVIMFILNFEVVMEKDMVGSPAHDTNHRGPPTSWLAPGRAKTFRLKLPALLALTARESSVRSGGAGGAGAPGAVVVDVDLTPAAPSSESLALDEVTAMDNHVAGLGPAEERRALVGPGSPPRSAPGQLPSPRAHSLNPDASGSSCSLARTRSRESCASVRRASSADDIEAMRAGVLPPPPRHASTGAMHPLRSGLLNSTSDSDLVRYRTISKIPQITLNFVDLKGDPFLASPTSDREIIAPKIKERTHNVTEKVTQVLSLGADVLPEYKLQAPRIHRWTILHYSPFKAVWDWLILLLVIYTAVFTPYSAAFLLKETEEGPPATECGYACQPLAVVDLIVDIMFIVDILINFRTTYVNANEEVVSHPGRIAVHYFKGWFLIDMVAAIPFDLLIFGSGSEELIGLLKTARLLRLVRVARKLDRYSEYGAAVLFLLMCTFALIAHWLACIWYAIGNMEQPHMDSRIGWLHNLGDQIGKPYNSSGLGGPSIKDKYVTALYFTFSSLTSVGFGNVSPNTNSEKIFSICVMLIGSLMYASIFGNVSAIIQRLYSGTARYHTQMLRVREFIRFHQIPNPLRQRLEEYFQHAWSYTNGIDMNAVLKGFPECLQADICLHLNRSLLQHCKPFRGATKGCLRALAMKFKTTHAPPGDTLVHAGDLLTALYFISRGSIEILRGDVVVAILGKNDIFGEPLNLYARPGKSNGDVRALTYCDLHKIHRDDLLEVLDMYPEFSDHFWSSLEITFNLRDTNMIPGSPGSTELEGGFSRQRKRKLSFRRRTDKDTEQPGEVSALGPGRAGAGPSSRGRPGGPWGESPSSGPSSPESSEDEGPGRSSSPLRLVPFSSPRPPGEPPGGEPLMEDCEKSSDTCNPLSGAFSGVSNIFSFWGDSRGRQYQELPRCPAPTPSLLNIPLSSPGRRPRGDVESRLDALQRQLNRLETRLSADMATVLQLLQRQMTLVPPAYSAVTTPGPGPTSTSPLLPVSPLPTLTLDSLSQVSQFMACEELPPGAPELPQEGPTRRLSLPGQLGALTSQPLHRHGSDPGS

Compound	hERG current change (%, negative = inhibition) at 10uM [%]
CC1CCCN(C(=O)C23CCC(C)(C(=O)C2)C3(C)C)C1 (stereo not drawn)	-11.5
Cc1cc(C)n(CCN(C)c2nc3nonc3nc2N2CCCCC2)n1	9.24
Cc1nc([N+](=O)[O-])cn1CC(O)c1ccc(F)cc1 (stereo not drawn)	6.48
C=CCNC(=O)C(C#N)c1nc2ccccc2nc1N1CCCCCC1 (stereo not drawn)	-9.34
CCOC(=O)C1CCCN(c2c(NCCC(C)C)c(=O)c2=O)C1 (stereo not drawn)	-10.9
CCOC(=O)N1CCc2[nH]c3ccc(C)cc3c2C1	10.5
COC(=O)c1cn(C(=O)c2cccs2)c2ccccc12	-7.34
C=CCn1c(SCC(=O)N2CCN(c3ccccc3)CC2)nc2c([nH]c3ccccc32)c1=O	13.3
O=C(Oc1ccc(-c2cnc3ccccc3n2)cc1)c1ccc(Cl)c([N+](=O)[O-])c1	13.3
COc1ccc(N(C(=O)c2snc(C(N)=O)c2N)C(C(=O)NC2CCCC2)c2ccc3ncccc3c2)cc1 (stereo not drawn)	-2.14
O=C(c1nc[nH]c1C(=O)N1CCN(c2ccccc2)CC1)N1CCN(c2ccccc2)CC1	-4.08
COc1ccc(N2C(=O)CCC(C(=O)Nc3cccc(C)n3)C2c2ccc(OC)c(OC)c2)cc1 (stereo not drawn)	-3.84
COc1ccc(-c2c3c(=O)n(C)c(=O)n(C)c3cn2-c2cc(OC)ccc2OC)cc1	-35.2
NC(=O)c1ccsc1NC(=O)CCS(=O)(=O)c1ccc(F)cc1	-2.69
COC(=O)c1sc(NC(=S)NC(=O)c2ccccc2F)nc1C	7.71
Clc1cc(Br)ccc1NCc1cccnc1	-21.1
Cc1cc(C)cc(-n2cc[nH]c2=S)c1	14.5
CCN(c1ccccc1)S(=O)(=O)c1ccc(NC(=S)NC(=O)c2ccc(Br)o2)cc1	3.66
N#CNC(=Nc1cccc(F)c1)SCc1ccccc1	5.49
CC1CN(C(NC(=O)C(C)(C)C)C(Cl)(Cl)Cl)CC(C)O1 (stereo not drawn)	-18.5
S=c1cnc2ccccc2[nH]1	7.5
COc1ccc(CN(C)C(=O)c2sccc2-c2ccccc2)c(OC)c1	0.177
COc1ccc(S(=O)(=O)NCCC(=O)NC(C)c2ccccc2)cc1 (stereo not drawn)	-12.4
CCN1C(=O)c2cccc3c(S(=O)(=O)NCCc4c[nH]c5ccccc45)ccc1c23	-22.1
